From the supplement of paper PMC10126150
Sequences with one replicate were seen in a single cluster, so their values are uncertain.

What follows are sequences tested on ATP (assay: switch fluorescence ratio, 500 uM ATP over buffer (Cy3 cluster intensity, sum of 5 cycles each) (fold (ratio)); higher = stronger signal-on switching upon ATP binding; sequences stand for … in TCGTCGGCAGCGTCAGATGTGTATAAGAGACAGTTTTTTTTTTTTTTTTTTTTTTTTT…TC). Settings: aptamer strand: ATP DNA aptamer (quencher-CACCTGGGGGAGTATTGCGGAGGAAGG + anchor), 100 nM annealed; ATP concentration: 500 uM; one replicate.
Method in brief: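 Exposure to 500 uM ATP lasted 15 min at 22 °C before imaging, and a selection-buffer image was taken beforehand, for Cy3-labelled switching-strand clusters on a modified Illumina MiSeq flow-cell annealed to 100 nM quencher-labelled ATP aptamer. Five buffer/ATP cycles were run with NaOH stripping and re-annealing between them. The fluorescence ratio per cluster is summed target-cycle over summed buffer-cycle Cy3 intensity, averaged per switch-domain sequence. Clusters outside 100-1000 RFU were excluded.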

Sequence | switch fluorescence ratio
GCCACTTTCT | 0.998
GCCAGCACTC | 1.28
GCCAGCAGGA | 1.05
GCCAGCGCT | 0.991
GCCAGGGAGT | 1.02
GCCAGGGGCT | 1.01
GCCAGTAGTC | 1.03
GCCAGTGAAC | 1.01
GCCATAACAA | 0.95
GCCATCAGGT | 1.02
GCCATCCGAG | 1.42
GCCATCCGGG | 1.05
GCCCAAAGCG | 1.01
GCCCAATGGA | 0.993
GCCCACAGCA | 0.998
GCCCATACGG | 1.05
GCCCATGCTT | 1
GCCCATTATA | 1.01
GCCCCAGCTT | 1.05
GCCCCATGCT | 1.03
GCCCCGAGCC | 1.12
GCCCGAATCT | 1.08
GCCCGCGAAT | 1.82
GCCCGGGTAC | 1.12
GCCCTATAGA | 0.996

Sequence | switch fluorescence ratio
GCCCTGCCGC | 1.13
GCCCTGGAAG | 1.03
GCCCTTCTG | 1.02
GCCCTTGATG | 1.02
GCCGAAAATT | 0.965
GCCGAAGTGT | 1.02
GCCGAGAGCG | 1.08
GCCGAGCTTA | 1.06
GCCGCCCTGT | 1.19
GCCGCCTGTA | 0.968
GCCGCGCAAA | 1.01
GCCGCTTGGT | 0.995
GCCGGACATA | 1.02
GCCGGGCTTT | 0.985
GCCGGGGGAT | 0.985
GCCGGGTCGT | 0.961
GCCGGTAAGT | 0.998
GCCGGTGGGG | 1.04
GCCGGTTATG | 0.999
GCCGTCATTG | 0.981
GCCGTCTTTG | 0.99
GCCGTGATCA | 0.96
GCCGTGGCT | 1.05
GCCGTGGGCT | 0.96
GCCTAAAATT | 1.02

Sequence | switch fluorescence ratio
GCCTAACTGT | 0.957
GCCTAGCGGC | 1.06
GCCTATGTTG | 1
GCCTATTCGC | 0.953
GCCTCACAAC | 1.16
GCCTCACCTT | 1.08
GCCTCAGCGT | 1.15
GCCTCGCCGG | 1
GCCTCGGGTT | 0.997
GCCTCTTTCG | 0.944
GCCTGAACGG | 0.979
GCCTGAAGCG | 0.99
GCCTGACGGA | 1.17
GCCTGAGGGG | 1.38
GCCTGATGAA | 0.993
GCCTGCCGCG | 1.2
GCCTGGCAAC | 0.969
GCCTTAAACG | 1.03
GCCTTCACTC | 1.71
GCCTTGCCAG | 1.01
GCCTTTAGTT | 0.971
GCCTTTCTTG | 1.1
GCCTTTGTGG | 0.996
GCCTTTTGGT | 0.992
GCGAACCTCG | 1.03

Sequence | switch fluorescence ratio
GCGAAGCAAA | 1.05
GCGAAGGGGA | 1.08
GCGAAGTACA | 1.1
GCGAATACGA | 3.04
GCGAATCAGC | 1
GCGACAAATC | 1.27
GCGACCTAAT | 1.06
GCGACTCTTT | 1.01
GCGACTGTT | 1.01
GCGACTTGAT | 0.992
GCGAGATAGG | 1.01
GCGAGCTTGA | 0.984
GCGAGGAGCC | 1.01
GCGAGGCATA | 1.98
GCGAGGGCTC | 1
GCGAGTATAC | 1.05
GCGAGTGTCA | 1.03
GCGATACCGG | 1.15
GCGATCGCG | 0.978
GCGATCGGAT | 0.998
GCGATCTACC | 1.77
GCGATGGTCT | 1.06
GCGATTGCGC | 0.969
GCGATTTAAT | 0.976
GCGCAAAAAT | 1.05
